Source: PubChem BioAssay AID1963576 (National Center for Advancing Translational Sciences (NCATS), 2024)
Screen size: about 46,000 compounds; about 60 (0.1%) were called active. Not shown: some 3% with an inconclusive outcome. Calls come from the whole dose curve; as a rule, active = well fitted inhibition curve with a large enough effect; inconclusive = small, poorly fitted or top-dose-only effect; inactive = no such curve, though single readings can be large or run the other way. The list shows a part of the results.

experiment: Primary qHTS assay for Inhibitors of ovarian cancer metastasis using an organotypic tumor microenvironment (TME) model.; note: nearly all actives have a fitted effect of over 65% in size;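 for activity change, negative = inhibition: plate controls were DMSO wells for no effect and tomatine positive control wells for full effect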; details: SKOV3ip1-GFP adhesion/invasion on 3D omental model, fluorescence; series mostly up to 45.8 µM; activity change, negative = inhibition: at the top concentration
Method in brief: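 qHTS, 4-pt dose (0.36-46 umol/L); SKOV3ip1-GFP, 1,200 cells/well, no FBS; primary omental fibroblast/mesothelial co-culture 48 h pre-grown; 2 h RT + 16 h 37 C; PBS wash, 4% PFA; GFP count 488/509 nm.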

Activity change, negative = inhibition, inactive:
COc1cc(NC(=O)c2cccc(F)c2)ccc1NC(=O)c1cc2ccccc2o1 1.06%
CCOc1ccccc1NC(=O)CN1CCCN(Cc2cccc(Cl)c2)S1(=O)=O 4.73%
COc1ccccc1CNC(=O)CSc1ncc2c(n1)-c1cc(Cl)ccc1N(Cc1ccccc1)S2(=O)=O 2.46%
Cc1c(C(=O)N(Cc2ccc(Cl)cc2)CC2CCCO2)oc2ccc(F)cc12 (configuration not stated) -5.35%
CCn1c(CN2CCOCC2)nc2cc(NC(=O)c3ccc([N+](=O)[O-])cc3)ccc21 -27.2%
CCOc1ccc(-c2nc(SCC(=O)NCCCOC)c(-c3ccccc3)[nH]2)cc1 -6.58%
Cc1cccc(-n2c(C)nc3cc(C(=O)NC4CCCCCC4)ccc32)c1 -0.408%
CCc1ccc(NC(=O)C2=CC(c3ccc4c(c3)OCO4)=NS(=O)(=O)N2C)cc1 -2.66%
O=C(CS(=O)(=O)c1cccc2nsnc12)Nc1cc(F)ccc1F 8.96%
O=C(Cc1ccccc1F)N1CCC(c2nc3c(nnn3Cc3ccc(F)cc3)c(=O)[nH]2)CC1 -1.69%
CC(=O)Nc1ccc(-n2c(CCC(=O)O)ccc2-c2ccc(C)cc2)cc1 -0.374%
CCc1ccc(Sc2cc(C(=O)NCCCOC(C)C)c3ccccc3n2)cc1 -6.81%
N#Cc1ccc(OC(=O)c2cc(-c3ccc4c(c3)OCCO4)on2)cc1 -24.9%
COc1cc2c(-c3ccc(C)cc3)nc3c(c(C)nn3-c3ccccc3)c2cc1OC 12.7%
COc1cccc(C2C(C(=O)Nc3ccccc3)=C(C)Nc3nnnn32)c1OC (configuration not stated) 4.37%
CC(C)Oc1ccc(CNC(=O)c2cnc3sc(N4CCCCC4)nn3c2=O)cc1 -28.2%
N#C/C(=C\c1ccccc1)C(=O)Nc1sc2c(c1C(N)=O)CCC2 -15.4%
Cn1cnc(S(=O)(=O)N2CCC(C(=O)N3CCN(c4ccc(Cl)cc4)CC3)CC2)c1 -3.02%
CCc1ccccc1NC(=O)C1COc2ccccc2C1 (configuration not stated) 9.59%
COc1ccc(S(=O)(=O)NCc2ccc3c(c2)CCN3C(=O)c2ccc(C)cc2)cc1Cl -0.811%

outcome, inactive:
COc1cc(C(=O)OCc2cc(=O)n3nc(C(C)C)sc3n2)cc(OC)c1OC
COc1ccc(NC(=O)Nc2c[nH]c(=O)[nH]c2=O)c(OC)c1
CCOC(=O)c1oc2ccc(S(=O)(=O)n3nc(-c4cc(OC)cc(OC)c4)cc3N)cc2c1C
Cc1cc(C)cc(OCC(=O)Nc2ccc(Cl)c(-c3nc4ncccc4o3)c2)c1
CCCn1c(=O)c2sccc2n2c(CCCC(=O)N3CCN(c4cccc(C)c4C)CC3)nnc12
Cc1ccc(NC(=O)CSc2nc3c(oc4ccccc43)c(=O)n2Cc2ccco2)cc1
CCOC(=O)C1CCN(C(=O)Cn2nc(C)n3c(cc4cc(C)ccc43)c2=O)CC1
